From PMC4336329 (PLoS ONE, 2015)
The campaign covered roughly 310,000 compounds. About 2,200 (0.71%) showed an effect of 50% or more. The effect is printed as a negative number. Some of the results follow.

Target: human ether-à-go-go-related gene (hERG) potassium channel (human, UniProt Q12809)
Test: primary screen, population patch clamp on CHO cells stably expressing hERG

Sequence of human ether-à-go-go-related gene (hERG) potassium channel (Q12809 whole entry, looked up): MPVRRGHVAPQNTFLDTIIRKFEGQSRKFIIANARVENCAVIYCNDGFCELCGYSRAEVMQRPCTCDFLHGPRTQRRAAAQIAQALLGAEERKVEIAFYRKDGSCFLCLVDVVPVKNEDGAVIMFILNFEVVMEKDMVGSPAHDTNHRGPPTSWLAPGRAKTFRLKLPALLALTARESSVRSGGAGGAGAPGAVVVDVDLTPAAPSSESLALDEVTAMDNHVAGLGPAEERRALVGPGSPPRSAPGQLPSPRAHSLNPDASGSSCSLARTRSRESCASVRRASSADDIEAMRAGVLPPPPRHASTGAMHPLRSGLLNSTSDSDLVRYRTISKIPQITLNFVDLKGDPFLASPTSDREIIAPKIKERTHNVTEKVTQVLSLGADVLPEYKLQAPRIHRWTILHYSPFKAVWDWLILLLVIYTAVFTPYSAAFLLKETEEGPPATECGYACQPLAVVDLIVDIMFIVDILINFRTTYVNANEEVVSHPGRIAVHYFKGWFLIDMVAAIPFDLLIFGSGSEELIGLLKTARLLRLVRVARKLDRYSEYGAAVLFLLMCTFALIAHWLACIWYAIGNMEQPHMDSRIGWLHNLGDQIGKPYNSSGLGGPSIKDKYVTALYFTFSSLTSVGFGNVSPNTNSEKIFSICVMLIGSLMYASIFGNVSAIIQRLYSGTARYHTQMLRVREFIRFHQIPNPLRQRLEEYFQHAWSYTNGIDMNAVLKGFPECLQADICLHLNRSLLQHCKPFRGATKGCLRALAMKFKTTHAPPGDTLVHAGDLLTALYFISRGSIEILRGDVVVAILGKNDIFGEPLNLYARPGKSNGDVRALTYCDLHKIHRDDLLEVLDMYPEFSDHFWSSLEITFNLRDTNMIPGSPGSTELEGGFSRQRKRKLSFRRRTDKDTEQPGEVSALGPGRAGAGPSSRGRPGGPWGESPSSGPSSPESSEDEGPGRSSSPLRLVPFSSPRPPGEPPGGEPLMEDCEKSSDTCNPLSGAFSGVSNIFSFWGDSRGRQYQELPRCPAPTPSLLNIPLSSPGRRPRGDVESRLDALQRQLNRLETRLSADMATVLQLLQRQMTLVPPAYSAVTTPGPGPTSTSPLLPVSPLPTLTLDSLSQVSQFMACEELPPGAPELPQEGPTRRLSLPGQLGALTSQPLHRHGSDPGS

Compound | hERG current change (%, negative = inhibition) at 1uM [%]
NC(=O)COC(=O)c1sc2ccccc2c1Cl | 23
Cc1cc(C)cc(OCC(=O)OCC(=O)Nc2cc(C)nn2-c2ccccc2)c1 | 15.3
Cc1ccc(-n2nc3c(=O)n(CCCC(=O)N4CCC(C)CC4)nc(C)c3c2C)cc1 | -21.2
O=C(CN1CC(=O)Oc2ccccc21)NCc1ccco1 | 14.1
CC(NC(=O)CN1C(=O)NC2(CCc3ccccc32)C1=O)c1ccccc1 (centres unmarked) | 1.44
COc1ccccc1-c1sc2ccccc2c1-c1ccc(C(C)=O)cc1 | 12.3
O=C(NCc1ccncc1)C1CCCN(S(=O)(=O)c2cc(Cl)ccc2Cl)C1 (centres unmarked) | -21.5
OCCN1CCN(c2nnc(-c3ccccc3)c3ccccc23)CC1 | -2.66
Cc1ccc(CNC(=O)c2cc3c(s2)CS(=O)(=O)C3)cc1 | 15.5
CC1(OC(=O)C2CCCC2)C(=O)C=C2C=C(c3ccsc3)N(Cc3ccccc3)C=C2C1=O (centres unmarked) | 3.1
COc1ccc(CCNC(=O)c2ccc3c(c2)NC(=O)C(C(C)C)N3)cc1OC (centres unmarked) | 13.7
C#CCN1C(=O)C2(OCCO2)c2ccccc21 | 15.3
Cc1cc(C)c(S(N)(=O)=O)c(C)c1N(C)S(=O)(=O)c1ccc(Cl)cc1 | 6.12
CCOc1ccc(/C(O)=C2/C(=O)C(=O)N(c3ncccn3)C2c2ccc(C)cc2)cc1 (centres unmarked) | 9.87
CCOC(=O)c1c(NC(=O)Cn2nc(C(=O)O)c3ccccc3c2=O)sc(C)c1C | 12.4
CC(C)C(=O)Nc1ccc(NC(=O)c2cccc3c(Br)cccc23)cc1 | 9.36
CC(C)COc1nc2c(c(=O)n(C)c(=O)n2C)n1C | -1.65
COc1cc(C(=O)NCCCOC(C)C)ccc1OC1CCN(C(C)=O)CC1 | 15.9
COc1cc(CN2CCCC(C(=O)c3sccc3C)C2)cc(OC)c1O (centres unmarked) | -15.2
O=S(=O)(c1c(F)cccc1F)N1CCN(Cc2c(O)ccc3ccccc23)CC1 | 6.69
Cc1cccc(C(C)Nc2ccc([N+](=O)[O-])cn2)c1 (centres unmarked) | -5.66
Cc1ccc(N(CC(=O)NCC2CCCO2)C(=O)CCC(=O)Nc2nccs2)cc1C (centres unmarked) | 16

Compound | hERG current change (%, negative = inhibition) at 1uM [%]
CCOc1ccc(C(=O)NC2CCN(C(=O)Nc3ccccc3OC)CC2)cc1 | 16.3
CN1CCc2c(sc3c2C(=O)NC(c2ccco2)N3)C1 (centres unmarked) | 10.6
Cc1ccc(OCCn2cc(/C=C3\C(=O)NN(c4ccccc4)C3=O)c3ccccc32)cc1 | 9.93
O=C(Nc1cccc(S(=O)(=O)N2CCOCC2)c1)c1ccc(N2CCOCC2)c([N+](=O)[O-])c1 | 2.79
Cc1nc(C(F)(F)F)c(C(=O)N/N=C(\N)c2cccnc2)s1 | 19
COc1ccc(CN2CCNC(=O)C2CC(=O)N(C)Cc2nccs2)c(OC)c1 (centres unmarked) | 13.1
COCCNC(=O)C1CC2Cn3c(nc4cc(Cl)c(Cl)cc43)C2N1C (centres unmarked) | -7.67
Cc1ccc(Cl)cc1N1CCN(C(=O)c2noc(C(C)C)c2[N+](=O)[O-])CC1 | 3.01
O=C(CCC(=O)N1CCCC1)Nc1nnc(C2CCCCC2)s1 | 8.89
Cn1nc(C(F)(F)F)c(C(=O)Nc2ccc(F)cc2F)c1Sc1cccc(Cl)c1 | -1.51
Fc1ccc(-c2nnc(-n3nnc4ccccc43)c3ccccc23)cc1 | 8.44
O=C(c1c[nH]c(C(=O)C(Cl)(Cl)Cl)c1)c1ccccc1F | 8.26
COC(=O)c1cc(=O)nc2sc(-c3ccc(F)cc3)nn12 | 2.2
CC(=O)Nc1ccc(-c2csc(NC(=O)CN3C(=O)NC4(CCCC4)C3=O)n2)cc1 | 22.1
COc1ccc(NC(=O)[C@@H](NC(=O)c2ccccc2)C(C)C)cc1S(=O)(=O)N1CCCCC1 | 15.2
O=c1c2c(n3cnnc3n1-c1ccccc1)-c1ccccc1CC21CCCC1 | 6.62
CCc1cc(C(=O)OC)c(NC(=O)c2ccoc2C)s1 | 13.9
CN(C)S(=O)(=O)c1ccc(/C(O)=C2/C(=O)C(=O)N(Cc3cccnc3)C2c2ccco2)cc1 (centres unmarked) | 8.6
COc1cc(C2NC(=O)NC(C)=C2C(=O)OC(C)(C)C)ccc1OCC(=O)O (centres unmarked) | 20.8
O=c1c(/C=C(\O)c2ccccc2)nc2ccccc2n1-c1ccccc1 | 11.9
O=C(N/N=C/c1ccc(Br)s1)c1cccnc1 | 0.941
COc1cc(NC(=S)Nc2ccccn2)cc(OC)c1OC | 7.59

Compound | hERG current change (%, negative = inhibition) at 1uM [%]
CC(NC(=O)CSc1ccccc1)c1ccccc1 (centres unmarked) | 17.8
Cn1ncc(N=Cc2ccccc2O)c1C(=O)Nc1ccccc1 | 1.34
CCSCC1COC(c2cccn2Cc2ccc(C)cc2)=N1 (centres unmarked) | 3.45
Cc1ccc(C)c(NC(=O)CCC(=O)N2CCOc3ccccc32)c1 | 9.35
O=C(O)c1cccc(CSc2nc(-c3ccccc3)cc(C(F)(F)F)n2)c1 | 7.3
O=C(c1cc(F)ccc1F)C1CCCN(Cc2cc(Cl)ccc2O)C1 (centres unmarked) | 13.7
CC(=O)Nc1ccc(S(=O)(=O)NCCC(=O)OCc2ccccc2F)cc1 | 4.78
Cc1c(NC(=O)c2ccc(S(=O)(=O)N(C)C)cc2)cccc1-n1cnnn1 | 20.7
Cc1c(C(=O)N2CCN(c3ncccn3)CC2)oc2ccc(Cl)cc12 | 2.57
Cc1ccc(S(=O)(=O)Cn2nnnc2CN(Cc2ccco2)CC2CCCO2)cc1 (centres unmarked) | 3.47
CCOC(=O)c1sc2ccc(S(=O)(=O)N3CCOCC3)cc2c1N | 10.6
COC(=O)c1ccc(CN2C(=O)NC3(CCC(C)CC3)C2=O)cc1 (centres unmarked) | 12.2
CN1C(=O)N(c2cccc3ccccc23)C(n2cncn2)C1(C)C (centres unmarked) | 11.2
CC(C)c1nnc(NC(=O)C2CCN(c3nc4ccccc4s3)CC2)s1 | 10.8
Cc1[nH]c2ccccc2c1CC#N | 13.7
O=C(O)c1cccnc1C(=O)c1ccccc1 | 14.1
O=C(NCc1cccs1)c1nc2c(nnn2Cc2ccccc2Cl)c(=O)[nH]1 | 16.1
CCOCCCNC(=O)C1(O)c2cc(Br)ccc2NC(=O)N1c1ccc(C)c(C)c1 (centres unmarked) | 10.4
Cc1cccc(NC(=S)N2CCC(NC(=O)c3cccc(F)c3)CC2)c1 | 5.76
COc1ccc(Cl)cc1N(C(=O)c1ccco1)C(C(=O)NC1CCCC1)c1ccncc1 (centres unmarked) | 9.16
CC(C)(C)C1CCc2c(sc(NC(=O)c3cccs3)c2C(=O)N2CCCCC2)C1 (centres unmarked) | 8.81
O=[N+]([O-])c1ccc(S(=O)(=O)Nc2ccccn2)cc1 | 15.1

Compound | hERG current change (%, negative = inhibition) at 1uM [%]
Oc1ccc2ccccc2c1C=Nc1ccc(N2CCOCC2)cc1 | 7.53
Cc1ccc(/C=N/NC(=O)C(NC(=O)c2ccccc2)c2n[nH]c(=O)c3ccccc23)cc1 (centres unmarked) | 10.8
Cc1ccc(S(=O)(=O)N(C)CCCC(=O)Nc2cc(C)ccc2C)cc1 | -2.45
CCOc1ccc(NC(=O)CCCN2C(=O)C(c3ccccc3)Oc3cccnc32)cc1 (centres unmarked) | 19.8
CC1(c2ccc3noc(-c4ccccc4)c3c2)OCCO1 | 9.5
O=C(CCC(=O)c1ccc(F)cc1)OC1CCOC1=O (centres unmarked) | -2.8
Cn1c(N)c(S(=O)(=O)N2CCN(c3ccccc3F)CC2)c(=O)n(C)c1=O | 8.44
COc1cccc(C(=O)NC(=O)Nc2cc(C)[nH]n2)c1 | 7.28
COc1ccccc1OCC(=O)NCc1n[nH]c(=O)c2ccccc12 | 8.33
CC(C)N(N=Nc1ccc([N+](=O)[O-])cc1)C(C)C | 8.39
COc1ccc(CN2CNc3nc4ccccc4n3C2)cc1 | -0.92
CCN(CC)c1ccc(/C=N/Nc2nc(C)cc(=O)[nH]2)cc1 | -6.56
COc1ccc(N(C(=O)c2ccco2)C(C(=O)NC2CCCC2)c2ccc(N(C)C)cc2)cc1 (centres unmarked) | 3.88
O=C(c1cnccn1)N(Cc1ccco1)C1(C(=O)NC2CCCCC2)CCCCC1 | 10.9
O=C(CCCN1C(=O)/C(=C/c2ccccc2Cl)SC1=S)N1CCOCC1 | 4.54
COc1ccc(C(=O)Cn2c(Cl)nc3c2c(=O)n(C)c(=O)n3C)cc1 | 3.55
O=C(O)C(=O)O.O=C1CCCN1CCCNCC(=O)N1c2ccccc2Sc2ccccc21 | 13.7
CCN(Cc1cc(=O)oc2cc(C)ccc12)c1ccccc1 | 15.3
O=C(NCCCn1ccnc1)C(=O)NCC1OCCCN1S(=O)(=O)c1ccc(Cl)cc1 (centres unmarked) | 1.46
CNS(=O)(=O)c1cc(NC(=O)c2cccc3cccnc23)ccc1C | 14.7
